The source of these data is patent publication US9676788B2, “Aza-epoxy-guaiane derivatives and treatment of cancer” (The United States of America, as represented by the …, priority 2014, dated 2017).

One assay concerns KM12. Description: NCI 60-cell line protocol, Colon Cancer KM12. The note with it: single dose 10 μM, two days exposure, SRB endpoint.
For a further assay, the system named is MCF7. Description: NCI 60-cell line protocol, Breast Cancer MCF7. The note with it: single dose 10 μM, two days exposure, SRB endpoint.
The subject of a further assay is HS 578T (breast cancer). Put plainly: NCI 60-cell line protocol, Breast Cancer HS 578T. It counts as cell-based, human. The note with it: single dose 10 μM, two days exposure, SRB endpoint.
The next assay has as its system SF-268. Description: NCI 60-cell line protocol, CNS Cancer SF-268. Conditions: SF-268 (CNS Cancer); single dose 10 μM; two days exposure; SRB endpoint.
The subject of another assay is HOP-92. The note with it: HOP-92 (Non-Small Cell Lung Cancer); single dose 10 μM; two days exposure; SRB endpoint.
The test system of a further assay is A549/ATCC. The note with it: A549/ATCC (Non-Small Cell Lung Cancer); single dose 10 μM; two days exposure; SRB endpoint.
Another assay relates to SW-620. Put plainly: NCI 60-cell line protocol, Colon Cancer SW-620. The note with it: SW-620 (Colon Cancer); single dose 10 μM; two days exposure; SRB endpoint.
In the next assay the test system is SF-295. Put plainly: NCI 60-cell line protocol, CNS Cancer SF-295. The note with it: SF-295 (CNS Cancer); single dose 10 μM; two days exposure; SRB endpoint.
The test system of the next assay is RXF 393. Description: NCI 60-cell line protocol, Renal Cancer RXF 393. It counts as cell-based, human. Conditions: RXF 393 (Renal Cancer); single dose 10 μM; two days exposure; SRB endpoint.
The test system of the next assay is NCI-H322M. The note with it: single dose 10 μM, two days exposure, SRB endpoint.
In a further assay the test system is HCT-15. Put plainly: NCI 60-cell line protocol, Colon Cancer HCT-15. Conditions: HCT-15 (Colon Cancer); single dose 10 μM; two days exposure; SRB endpoint.
Another assay deals with MDA-MB-468. Put plainly: NCI 60-cell line protocol, Breast Cancer MDA-MB-468. The note with it: MDA-MB-468 (Breast Cancer); single dose 10 μM; two days exposure; SRB endpoint. It counts as cell-based, human.
In a further assay the test system is OVCAR-3. Description: NCI 60-cell line protocol, Ovarian Cancer OVCAR-3. Conditions: OVCAR-3 (Ovarian Cancer); single dose 10 μM; two days exposure; SRB endpoint.
The next assay relates to OVCAR-4. Description: NCI 60-cell line protocol, Ovarian Cancer OVCAR-4. The note with it: OVCAR-4 (Ovarian Cancer); single dose 10 μM; two days exposure; SRB endpoint. The format is cell-based, human.

Where two headings read alike, the source gives them in different places.

Consider `C/C(=C\C(=O)OC1C2C(C)CCC2C2(C)OC1(C(C)C)CC2NC(=O)CO)c1ccccc1` (stereo not drawn) [Compound 10], for which the “Growth Percent” value is on record as 111.83% in the assay with KM12; 89.73% with MCF7; −8.92% in the assay with HS 578T (breast cancer); 105.59% in the assay on SF-268; 87.13% with HOP-92; 84.13% with A549/ATCC. Further, the “Growth Percent” value in the assay with SW-620 is 103.14%; in the assay with SF-295, 97.79%; in the assay with RXF 393 it was 73.51%; in the assay with NCI-H322M ([…]), 105.1%; with HCT-15, 99.96%; in the assay on MDA-MB-468, 101.49%.

As to `CC1CCC2C1C(OC(=O)/C=C/c1ccccc1)C1(C(C)C)CC(NC(=O)CF)C2(C)O1` (stereo not drawn) [Compound 31], the “Growth Percent” value is on record as 103.52% with KM12; 105.67% with MCF7; 92.63% with HS 578T (breast cancer); 97.74% in the assay on SF-268; 75.85% in the assay with HOP-92; 94.42% in the assay with A549/ATCC. Besides, the “Growth Percent” value was 100.57% with SW-620; 104.84% in the assay on SF-295; 114.72% with OVCAR-3; 104.77% in the assay with OVCAR-4; 97.44% in the assay with NCI-H322M (NCI-H322M (Non-Small Cell Lung Cancer)); 102.83% with HCT-15.
